In all, about 33,000 sequences were measured (“E-score (-0.5 to 0.5)”: median about -0.053, highest 2% from about 0.37 on). Some of the results follow.
Target: Hap1 (UniProt P0CE41)
Test: PBM E-score (8-mer binding enrichment) (E-score (-0.5 to 0.5)); higher = stronger / more preferred TF binding; most listed sequences are background and not binding sites
Settings: protein concentration: 200 nM; construct: GST-DNA-binding domain
How it was run: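 Masliner-normalised scans of fluorescent anti-GST signal were the basis for scoring. That signal came from GST-tagged yeast transcription factors applied at about 100-200 nM to double-stranded universal all-10-mer Agilent arrays on fresh or once-stripped slides. Each ungapped eight-base word, pooled with its reverse complement, received an E-score from the Universal PBM Analysis Suite.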

UniProt P0CE41, sequence (P0CE41 whole entry): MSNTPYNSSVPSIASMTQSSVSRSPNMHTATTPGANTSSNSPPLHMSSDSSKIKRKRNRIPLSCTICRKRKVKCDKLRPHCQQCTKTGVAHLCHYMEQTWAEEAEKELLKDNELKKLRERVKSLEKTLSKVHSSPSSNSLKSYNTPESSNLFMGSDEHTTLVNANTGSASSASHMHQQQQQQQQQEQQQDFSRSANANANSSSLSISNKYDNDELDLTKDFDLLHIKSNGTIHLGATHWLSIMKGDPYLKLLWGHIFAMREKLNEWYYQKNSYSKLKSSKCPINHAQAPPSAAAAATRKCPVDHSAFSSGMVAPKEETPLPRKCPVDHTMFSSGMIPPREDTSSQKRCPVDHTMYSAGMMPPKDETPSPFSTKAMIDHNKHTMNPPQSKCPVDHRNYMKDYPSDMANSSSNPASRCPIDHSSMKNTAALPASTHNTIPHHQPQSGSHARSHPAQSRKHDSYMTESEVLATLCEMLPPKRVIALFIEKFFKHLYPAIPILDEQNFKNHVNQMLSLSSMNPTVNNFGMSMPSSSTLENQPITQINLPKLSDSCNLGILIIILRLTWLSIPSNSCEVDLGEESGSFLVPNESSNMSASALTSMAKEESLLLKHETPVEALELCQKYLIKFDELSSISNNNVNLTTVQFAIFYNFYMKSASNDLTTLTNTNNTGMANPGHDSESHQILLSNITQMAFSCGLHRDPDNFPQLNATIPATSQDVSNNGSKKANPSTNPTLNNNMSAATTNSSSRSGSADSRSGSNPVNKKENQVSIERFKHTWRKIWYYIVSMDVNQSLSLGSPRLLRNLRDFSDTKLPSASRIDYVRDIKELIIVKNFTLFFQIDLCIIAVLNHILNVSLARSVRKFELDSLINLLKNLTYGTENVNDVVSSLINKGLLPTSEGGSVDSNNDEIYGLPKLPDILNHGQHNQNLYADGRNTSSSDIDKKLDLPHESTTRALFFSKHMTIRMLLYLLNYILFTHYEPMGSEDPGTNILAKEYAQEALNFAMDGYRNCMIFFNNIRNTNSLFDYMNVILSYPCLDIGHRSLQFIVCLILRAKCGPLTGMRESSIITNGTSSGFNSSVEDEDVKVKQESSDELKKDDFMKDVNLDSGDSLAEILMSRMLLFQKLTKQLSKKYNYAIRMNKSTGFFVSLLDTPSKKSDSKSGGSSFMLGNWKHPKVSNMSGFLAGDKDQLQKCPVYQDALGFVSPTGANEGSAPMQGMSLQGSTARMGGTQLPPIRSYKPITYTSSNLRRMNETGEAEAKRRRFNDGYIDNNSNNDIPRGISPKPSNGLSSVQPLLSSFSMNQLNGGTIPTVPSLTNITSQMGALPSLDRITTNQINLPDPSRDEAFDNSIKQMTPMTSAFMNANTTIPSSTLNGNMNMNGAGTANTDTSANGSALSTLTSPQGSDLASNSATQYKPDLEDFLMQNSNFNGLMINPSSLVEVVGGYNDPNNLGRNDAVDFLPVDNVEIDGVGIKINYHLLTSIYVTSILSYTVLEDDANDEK

Sequence | PBM E-score
CAATTCCA | -0.0901
CAGAAAGC | -0.262
AAGTCCGT | 0.417
GGTTTAAA | 0.0781
ACGTCGAA | -0.179
GTGCACAA | -0.0721
ATTGTCTG | -0.109
ATGGTCGG | 0.192
AGTACCGC | 0.187
CTGCACTA | 0.0173
AGGCATAA | -0.0303
CAATATAG | -0.0976
CTGAATTA | 0.00258
CTGCTAGC | -0.32
AAATTACT | -0.0232
AGCGCAAT | -0.0796
ACTAGGAC | -0.091
AGATCTTG | -0.175
AACTCTGA | -0.00378
AACCAGAA | -0.269
GAAAGTGA | -0.0915
CCGACCAC | 0.194
AAATGGTC | 0.0716
TACCGACA | 0.209
ATCTCAGC | -0.0878

Sequence | PBM E-score
AAAGCCAT | 0.00306
CGCATTCC | 0.0252
CACGGCAA | 0.0851
CACAGGGC | -0.144
AACATCAG | -0.152
TACGGAAA | 0.316
CGTGCCCA | -0.0704
ATCGCAGA | -0.219
ACTAAGCG | -0.0531
GTGAGTGA | -0.17
ACCCTAAC | 0.051
ATCGTTTG | 0.0269
AATGATAG | 0.176
GCCAAAGC | -0.066
GACTACAC | -0.229
CTAACTTA | 0.0135
ATAGTGTG | -0.157
GAACCAGC | -0.0256
GCACCTGC | -0.151
CACGGATC | 0.267
ACCTAAAT | 0.105
GGGTCTAC | -0.0108
GGTCAGGA | 0.0614
GGATAGCA | -0.103
CTTCCTAC | -0.355

Sequence | PBM E-score
CTGTTAGA | -0.174
TAAAACCA | -0.13
ACGCGCTA | -0.00788
ATCTGCGC | 0.00257
GCATGCAA | 0.0148
CAGGCAAG | -0.183
CTGCAGCA | -0.19
CGCCGCCC | 0.138
CTTCAGTA | -0.111
AAGGTAGG | -0.0701
CGATCATA | -0.0295
GAGGAAAA | -0.0281
AAACACTG | -0.137
AACGGTCT | 0.0385
GGACGCCC | 0.138
CAGGTCAA | -0.112
TGGTGAAA | -0.122
CCAGGTCG | -0.233
GCAAGACA | -0.0165
CTGTCGAC | -0.14
GTTAATAA | 0.142
CCACGGCG | 0.16
TGGCCCAA | -0.141
ACGAGTGG | -0.0351
AGTGATTG | -0.0722

Sequence | PBM E-score
CCGGTGGA | 0.39
ATTCTAGA | -0.17
ACGTCGTA | -0.187
AGCCCATC | -0.0849
ACGACACT | -0.182
ACAGTCGC | -0.234
CCACTCTC | 0.0582
CCGACCAA | 0.204
GGGCAGCA | -0.182
AGGCTCGA | -0.164
ACGTCAGC | -0.0646
AGCCAATC | -0.00265
GCTATGAC | 0.011
CCGTCACG | 0.209
GAGTGGAA | -0.0273
AGGGCCAA | -0.195
CGTAGTAA | -0.0685
AATCCAGG | -0.13
AATGCGAT | 0.0235
ACAGACGA | -0.101
TCCGAGCA | 0.402
CCAAAGGC | -0.245
ACCTAGCA | -0.158
AAGATATG | 0.00745
GAAGGCAA | -0.137

Sequence | PBM E-score
ACGGTTTC | 0.156
GCACATAC | -0.147
ACGTCTCA | -0.113
CACGTGAG | -0.173
GCCCGATA | 0.423
CCGCAAAG | 0.201
CTAGCTCA | -0.308
AGTATGCC | 0.0174
CATGGATC | 0.0587
AGGAGCAA | -0.0675
CTGGTCGA | -0.0394
GATAGTTA | 0.0916
AATTCGAA | -0.249
GGTGCCAA | -0.0723
ACACTTGG | -0.0889
ATCGGCTC | 0.311
ACTTCGAG | -0.0766
GACCTTGA | -0.296
AGACGTTA | -0.107
AGGTAGGG | -0.218
AAACATCA | -0.189
AGAATTCC | 0.031
TGTCAGAA | -0.373
GCTACAAA | -0.0565
ACGTTGAA | -0.0505

Sequence | PBM E-score
ATGCAACC | -0.0334
CACTATTC | 0.0152
CATGCACG | -0.156
AAGGATGA | -0.247
AAGTTCGG | 0.306
AAGAGATG | -0.191
CTGGACCA | -0.164
CCCGCCTA | 0.136
GGATTAAC | 0.195
AAGCCCGA | 0.333
AATAAGAC | -0.3
CGTCTAGC | -0.148
CGAGAATC | 0.0475
ATCGACCA | -0.251
ACACAATC | -0.0512
CAGGGATC | -0.199
GACAAATA | 0.0891
AGGACTCG | -0.13
TGATTGCA | -0.0557
ACCCGCAC | 0.23
CAGACGGG | -0.0349
AGGATTGC | -0.126
AAATCCCG | 0.379
CGCCGCTC | 0.186
ATGATATC | -0.0808

Sequence | PBM E-score
ATGAGCCA | -0.206
CCCCACGC | -0.189
TCACTAGA | -0.00688
CTTAGTCC | 0.168
TAGCCGAA | 0.314
TACCGCTA | 0.159
CGTGTGGA | -0.0408
AGACACTC | -0.185
AGAACCGC | 0.0105
CAGTAATG | -0.223
ATACTCTA | -0.0913
GTCGCCGA | 0.246
GCAGTAAC | -0.0514
AACCCGTC | 0.093
ACTTCAAC | -0.0481
GAGACACA | -0.0116
AAAAACTA | -0.0564
ATTAGATG | -0.0455
CATTCAAC | -0.283
TAAGGGAA | -0.286
CATCCGGC | 0.342
TTAAAGAA | -0.0249
